Substitutions are numbered along the chain they refer to. In names and notes the source's numbering stands. Results are given in words; binding and its absence hold for the method and conditions named. For part of these data: Binding seen in cells or lysates may run through a third protein. Some entries that bind do so weakly or less than the wild type. For part of these data: Sequences can lack the tags named with a protein.
Assays:
[1] = target: T1, WDR33 residues 1–413 (subunit of the purified mPSF) (human) (UniProt Q9C0J8); experiment: cryo-EM structure; same reconstruction as a7: contacts between the subunits of mPSF, which were coexpressed in HEK293T and purified together
T1 sequence: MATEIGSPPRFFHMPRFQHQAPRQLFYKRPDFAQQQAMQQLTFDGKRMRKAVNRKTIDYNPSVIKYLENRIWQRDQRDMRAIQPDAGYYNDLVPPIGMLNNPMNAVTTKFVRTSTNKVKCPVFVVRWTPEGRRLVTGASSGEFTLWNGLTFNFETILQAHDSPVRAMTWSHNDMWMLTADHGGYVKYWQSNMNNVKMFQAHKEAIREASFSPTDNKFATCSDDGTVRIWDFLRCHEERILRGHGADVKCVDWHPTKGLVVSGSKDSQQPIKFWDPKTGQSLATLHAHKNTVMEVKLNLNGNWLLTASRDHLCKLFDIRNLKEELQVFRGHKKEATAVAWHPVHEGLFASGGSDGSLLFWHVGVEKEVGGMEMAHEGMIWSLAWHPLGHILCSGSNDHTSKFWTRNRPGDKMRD

The chains behind the UniProt entries cited, without tags or fusion partners. Where a name states a change or a piece, a line headed by the entry shows the natural chain unless it says otherwise. A line that says so, or that is headed by a name, gives the form on record, which may keep a tag or linker.
TwinStrep-3C-CPSF30_isoform 2 (subunit of the purified mPSF) (O95639-2, form named): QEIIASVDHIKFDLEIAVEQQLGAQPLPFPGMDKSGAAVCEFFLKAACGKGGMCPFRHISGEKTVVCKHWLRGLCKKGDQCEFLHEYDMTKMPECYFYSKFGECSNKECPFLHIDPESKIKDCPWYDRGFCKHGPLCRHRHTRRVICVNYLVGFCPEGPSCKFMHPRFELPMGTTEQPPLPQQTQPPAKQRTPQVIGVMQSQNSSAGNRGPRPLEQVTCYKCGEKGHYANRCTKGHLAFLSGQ

[2] = target: T2, CPSF160 (subunit of the purified mPSF) (human) (UniProt Q10570); experiment: as above
T2 sequence: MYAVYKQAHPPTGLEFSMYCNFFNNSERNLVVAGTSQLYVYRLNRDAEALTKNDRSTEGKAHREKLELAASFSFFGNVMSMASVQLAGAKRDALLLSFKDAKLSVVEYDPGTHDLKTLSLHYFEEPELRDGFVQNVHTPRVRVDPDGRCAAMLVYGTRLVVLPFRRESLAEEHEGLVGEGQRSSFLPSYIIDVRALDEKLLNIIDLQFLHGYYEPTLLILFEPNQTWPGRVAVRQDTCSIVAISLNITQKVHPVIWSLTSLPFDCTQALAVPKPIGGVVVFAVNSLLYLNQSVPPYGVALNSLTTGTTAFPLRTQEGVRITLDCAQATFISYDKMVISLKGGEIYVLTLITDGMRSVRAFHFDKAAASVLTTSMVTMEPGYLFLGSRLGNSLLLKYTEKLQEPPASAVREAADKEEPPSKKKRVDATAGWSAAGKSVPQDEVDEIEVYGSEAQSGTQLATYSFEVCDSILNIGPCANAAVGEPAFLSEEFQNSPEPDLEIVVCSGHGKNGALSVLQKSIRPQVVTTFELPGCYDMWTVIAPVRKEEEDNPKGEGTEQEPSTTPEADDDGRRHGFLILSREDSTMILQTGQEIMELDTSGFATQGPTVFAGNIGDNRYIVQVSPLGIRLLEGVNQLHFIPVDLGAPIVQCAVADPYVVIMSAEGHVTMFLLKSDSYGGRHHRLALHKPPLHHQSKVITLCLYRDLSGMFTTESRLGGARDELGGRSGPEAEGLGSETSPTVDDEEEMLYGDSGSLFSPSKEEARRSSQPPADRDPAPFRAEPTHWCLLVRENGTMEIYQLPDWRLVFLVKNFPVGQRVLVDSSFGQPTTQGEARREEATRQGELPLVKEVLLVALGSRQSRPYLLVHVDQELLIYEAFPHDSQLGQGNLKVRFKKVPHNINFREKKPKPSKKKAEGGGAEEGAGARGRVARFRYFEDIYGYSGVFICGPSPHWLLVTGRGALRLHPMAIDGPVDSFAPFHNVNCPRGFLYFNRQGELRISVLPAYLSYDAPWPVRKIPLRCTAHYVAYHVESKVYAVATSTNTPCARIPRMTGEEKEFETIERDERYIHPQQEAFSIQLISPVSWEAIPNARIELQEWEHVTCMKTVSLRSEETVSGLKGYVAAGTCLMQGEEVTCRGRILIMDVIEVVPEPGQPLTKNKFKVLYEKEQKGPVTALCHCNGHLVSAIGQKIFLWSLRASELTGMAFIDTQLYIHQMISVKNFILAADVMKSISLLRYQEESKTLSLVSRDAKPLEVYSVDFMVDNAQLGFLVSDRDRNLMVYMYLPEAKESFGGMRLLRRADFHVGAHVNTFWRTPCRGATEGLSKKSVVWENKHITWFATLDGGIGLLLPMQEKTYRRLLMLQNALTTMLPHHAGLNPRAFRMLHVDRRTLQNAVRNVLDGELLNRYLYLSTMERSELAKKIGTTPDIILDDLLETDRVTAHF

[3] = target: PAPOA structured core (His8-3C-PAPOA residues 1–513-FLAG), wild type (human) (UniProt P51003); experiment: pull-down; data not shown: competition with FIP1 prebound to the PAPOA core and PAPOAC added in large excess; both purified
[4] = target: PAPOA structured core (His8-3C-PAPOA residues 1–513-FLAG), wild type (human) (UniProt P51003); experiment: pull-down; FLAG pull-down on α-FLAG M2 Protein G Dynabeads; FLAG-tagged PAPOA core 2.5 µM as bait, FIP1 25 µM (10× excess); 20 mM HEPES-NaOH pH 7.5, 150 mM NaCl, 5 mM MgCl2, 0.01% NP-40 substitute, 4°C; Coomassie-stained SDS-PAGE; both purified
[5] = target: mammalian polyadenylation specificity factor (mPSF: TwinStrep-3C-CPSF30_isoform 2, CPSF160, WDR33 residues 1–413, FIP1 residues 1–393) (human) (UniProt O95639+Q10570+Q9C0J8+Q6UN15); experiment: cryo-EM structure; 1 µM purified mPSF mixed with 500× excess of synthesized PAPOAC peptide in EM buffer (50 mM HEPES-KOH pH 7.9, 150 mM KOAc, 1 mM Mg(OAc)2, 1 mM TCEP), 15 min at 4°C; global resolution 2.79 Å; both purified
[6] = target: full-length poly(A) polymerase (PAPOA) expressed in HEK cells (human) (UniProt P51003); experiment: pull-down; HEK cell lysates, PAPOA and FIP1 cotransfected (plasmid ratio 1:5); MagStrep type3 XT beads, KingFisher, room temperature; 20 mM HEPES-NaOH pH 7.5, 150 mM NaCl, 5 mM MgCl2, 0.1% NP-40 substitute
[7] = target: T3, PAPOA structured core (His8-3C-PAPOA residues 1–513-FLAG) H487E K489E (human) (UniProt P51003); experiment: pull-down; FLAG pull-down on α-FLAG M2 Protein G Dynabeads; FLAG-tagged PAPOA core 2.5 µM as bait, FIP1 25 µM (10× excess); 20 mM HEPES-NaOH pH 7.5, 150 mM NaCl, 5 mM MgCl2, 0.01% NP-40 substitute, 4°C; Coomassie-stained SDS-PAGE; both purified
T3 sequence: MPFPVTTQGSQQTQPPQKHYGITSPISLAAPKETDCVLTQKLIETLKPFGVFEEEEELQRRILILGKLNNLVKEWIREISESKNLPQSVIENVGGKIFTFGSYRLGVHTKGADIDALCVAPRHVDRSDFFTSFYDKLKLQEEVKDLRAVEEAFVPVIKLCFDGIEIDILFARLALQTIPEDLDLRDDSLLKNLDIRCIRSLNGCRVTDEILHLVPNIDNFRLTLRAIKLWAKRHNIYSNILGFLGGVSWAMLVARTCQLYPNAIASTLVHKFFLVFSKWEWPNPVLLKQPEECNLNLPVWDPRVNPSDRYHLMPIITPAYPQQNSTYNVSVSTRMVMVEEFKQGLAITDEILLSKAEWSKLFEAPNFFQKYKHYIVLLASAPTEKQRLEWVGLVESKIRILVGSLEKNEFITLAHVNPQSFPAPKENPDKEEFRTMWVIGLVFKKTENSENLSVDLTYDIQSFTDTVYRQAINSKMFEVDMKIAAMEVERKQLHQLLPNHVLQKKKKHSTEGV

For “TwinStrep-3C-CPSF30_isoform 2 (subunit of the purified mPSF) (from UniProt O95639-2 2-244)”, the binding [1] was “binds” and the binding [2] was “binds”.

B1: FIP1 N terminus (His6-MBP-3C-FIP1 residues 1–113), wild type (domain or fragment, UniProt Q6UN15 1-113)
chain: MSAGEVERLVSELSGGTGGDEEEEWLYGGPWDVHVHSDLAKDLDENEVERPEEENASANPPSGIEDETAENGVPKPKVTETEDDSDSDSDDDEDDVHVTIGDIKTGAPQYGSY
In the case of B1, the binding [3] is reported as “binds” and the binding [4] is reported as “binds”.

B2: minimal PAPOAC construct (His6-MBP-3C-PAPOA residues 720–745), wild type (peptide)
chain: DLSDIPALPANPIPVIKNSIKLRLNR
notes: human poly(A) polymerase alpha (PAPOA), C-terminal motif, residues 720-745; A 3C site follows MBP; no cleavage step is described in the purification; also called PAPOA C terminus; PAPOAC peptide; source: E. coli BL21 STAR (DE3) pRARE, purified (Amylose resin, Superdex 200)
For B2, the binding [5] was “binds weakly”.

B3: longer FIP1 construct (residues 1–393), wild type, expressed in HEK cells (domain or fragment, UniProt Q6UN15 1-393)
chain: MSAGEVERLVSELSGGTGGDEEEEWLYGGPWDVHVHSDLAKDLDENEVERPEEENASANPPSGIEDETAENGVPKPKVTETEDDSDSDSDDDEDDVHVTIGDIKTGAPQYGSYGTAPVNLNIKTGGRVYGTTGTKVKGVDLDAPGSINGVPLLEVDLDSFEDKPWRKPGADLSDYFNYGFNEDTWKAYCEKQKRIRMGLEVIPVTSTTNKITAEDCTMEVTPGAEIQDGRFNLFKVQQGRTGNSEKETALPSTKAEFTSPPSLFKTGLPPSRNSTSSQSQTSTASRKANSSVGKWQDRYGRAESPDLRRLPGAIDVIGQTITISRVEGRRRANENSNIQVLSERSATEVDNNFSKPPPFFPPGAPPTHLPPPPFLPPPPTVSTAPPLIPPPGF
In the case of B3, the binding [6] is reported as “binds”.

With ETEDDSDSDSDDDERDVHRTIGDIKTGAPQYGSY (peptide, UniProt Q6UN15 80-113) [minimal FIP1 construct (His6-MBP-3C-FIP1 residues 80–113) D94R V98R] the binding [4] was “no binding (tested: 25 µM FIP1 with 2.5 µM PAPOA)”.

B4: minimal FIP1 construct (His6-MBP-3C-FIP1 residues 80–113), wild type (peptide, UniProt Q6UN15 80-113, looked up)
chain: ETEDDSDSDSDDDEDDVHVTIGDIKTGAPQYGSY
notes: A 3C site follows MBP; no cleavage step is described in the purification; also called minimal FIP1 peptide; source: E. coli BL21 STAR (DE3) pRARE, purified (Amylose resin, Superdex 200)
With B4 the binding [7] was “no binding (tested: 25 µM FIP1 with 2.5 µM PAPOA)”.

B5: longer FIP1 construct (residues 1–393) with the FIP1-charged mutations D94R V98R, expressed in HEK cells (domain or fragment, UniProt Q6UN15 1-393)
chain: B3 chain with D94R, V98R
B5 was tested, and the binding [6] was “no binding”.
